The list shows a part of the results.

The subject of the test is PF3D7_0420300 AP2 domain 1 (GST-tagged). Description: gcPBM binding intensity (ln(normalized median fluorescence intensity)); higher = stronger DNA binding. A digest of the protocol: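 GST-tagged P. falciparum DNA-binding domains produced in E. coli were incubated for 1 h on an Agilent 4 × 180k array of primer-extended double-stranded 36-bp intergenic genomic probes with negative controls. Binding intensity is the highest Masliner-normalised natural-log median intensity across replicate spots of either probe orientation, with bound protein detected by Alexa488 anti-GST antibody at 488 nm.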
In the case of “TATACCTTAATATACACACATACATATATATATATA [CACACA_site1339]”, the “gcPBM binding intensity (ln)” value came to 9.57.

On to TATATACATTTTTATGTGCACATTTTATTTTTAAAT, for which the “gcPBM binding intensity (ln)” value amounted to 9.33.

Regarding “TAACAAAGTAAAAGAACATGCAAACACGCACACAGA [TGCATGCA_site374]”, the “gcPBM binding intensity (ln)” value was determined as 9.73.

On to “GGGGAAAAAGCAGGTTGTACAGTGATGTCCATATAA [XGTACX_site7606]”, for which the “gcPBM binding intensity (ln)” value was found to be 9.39.

As to “AGTGTATTAAATTTTGAACACACAAAATAAAACATA [CACACA_site8483]”, the “gcPBM binding intensity (ln)” value is 9.43.

For “TTTTAATTTAAAAATTAATTTATATATATATATATA [TGCATGCA_negctrl_site447]”, the “gcPBM binding intensity (ln)” value came out at 8.89.

For “TTTAGACTTTTCTATAGTACATATTATATATATATA [XGTACX_site6532]”, the “gcPBM binding intensity (ln)” value amounted to 9.08.

With “AATTTATTAATACAAAGTACTTTCTAATATGAATTT [XGTACX_site8013]”, the “gcPBM binding intensity (ln)” value amounted to 8.92.

Turning to “GAAAAATTAAAATGTGGTACAATAAAATTTTATTCA [XGTACX_site5030]”, the “gcPBM binding intensity (ln)” value was 9.22.

For the sequence “ATATTTATACTATACACACCCAATTTAAAAAAAAAT [CACACA_site1163]”, the “gcPBM binding intensity (ln)” value was 9.62.

As for “TTATTGCGCACAATTTGTACATATATATATATAGAA [XGTACX_site7573]”, the “gcPBM binding intensity (ln)” value is 9.09.

In the case of “GTAAGAAACAGACACACACACATATAAATATAAATA [CACACA_site6515]”, the “gcPBM binding intensity (ln)” value worked out at 10.1.

Turning to “TATTGAAAAAGTGGAAAAAAGTACATCATACGGGAA [CACACA_negctrl_site1091]”, the “gcPBM binding intensity (ln)” value amounted to 9.66.

With “CGTAATAATTAATGTTGTACCCACCAAAAAAATTAA [XGTACX_site8592]”, the “gcPBM binding intensity (ln)” value worked out at 9.08.

Turning to “ATTACATTTTTGTTTTGTACATATATTTTATAAACA [XGTACX_site494]”, the “gcPBM binding intensity (ln)” value amounted to 9.34.

As to “TATATTTATATATATACACACATAATAAAAAATATA [CACACA_site844]”, the “gcPBM binding intensity (ln)” value was 9.45.

In the case of “TTGTTTTGTAATAAAAAAAAAATAATATAATATAAT [XGTACX_negctrl_site300]”, the “gcPBM binding intensity (ln)” value is 9.11.

In the case of “GAAATATTGAAACACACACACAAACATATATATATA [CACACA_site1911]”, the “gcPBM binding intensity (ln)” value amounted to 9.96.

As for “TTTATAGTTTTAAACAAAGTAATACAAATGTATATA [CACACA_negctrl_site1716]”, the “gcPBM binding intensity (ln)” value is 8.87.

“TATAAAAAAAATAAAATAAAATAAAATAGAAAAATA [TGCATGCA_negctrl_site109]”: the “gcPBM binding intensity (ln)” value was determined as 9.37.

As to “AACATTATCAAATAAACCATAAATCAATTCAATATG [CACACA_negctrl_site696]”, the “gcPBM binding intensity (ln)” value amounted to 9.39.

As to “AAACGTTTATTTTATTGTACATATGAAAAATGCTTC [XGTACX_site6896]”, the “gcPBM binding intensity (ln)” value was determined as 9.19.

As for “ATATTTTTTTTTTTCACACACATTTAGATTGTATTA [CACACA_site3137]”, the “gcPBM binding intensity (ln)” value came to 9.86.

For “AAAAAAAAAAAAAATTGTACGGATTCTTTTTTTTTT [XGTACX_site2898]”, the “gcPBM binding intensity (ln)” value worked out at 9.1.

On to “TTGTATAAAAAACTAAAAAATATAAAATAATAAGTG [CACACA_negctrl_site1704]”, for which the “gcPBM binding intensity (ln)” value amounted to 9.32.

With “AAAAAAATATATTCCTAATTTATGATTAAAAGGAAT [CACACA_negctrl_site751]”, the “gcPBM binding intensity (ln)” value came out at 8.98.

As to “ATAAATTAAACAAACACACACGTTCTTTTATTTACT [CACACA_site4556]”, the “gcPBM binding intensity (ln)” value stood at 9.66.

On to “TTTTTTTTTGGGTGTACACATGAATATATATTTTTT [CACACA_site5254]”, for which the “gcPBM binding intensity (ln)” value came to 9.28.

In the case of “AGAATTATATCATGGTGTACTTATTTGTTTATTTCT [XGTACX_site5795]”, the “gcPBM binding intensity (ln)” value turned out to be 9.57.

“AAATTTGGTGAAGGATGTACTTTACCTAATACTTGT [XGTACX_site4825]”: the “gcPBM binding intensity (ln)” value was 9.21.

On to “AAAACAAAAAAATTTTGTACGAAACAATACTGTAAG [XGTACX_site7992]”, for which the “gcPBM binding intensity (ln)” value came to 9.11.

On to “TATATATATTGTTATTGTACACAAATATAGGAAATA [XGTACX_site7110]”, for which the “gcPBM binding intensity (ln)” value turned out to be 9.23.

On to “ATAAATAGAATAAAATGTACATGTAATACATATATA [XGTACX_site5475]”, for which the “gcPBM binding intensity (ln)” value was 9.39.

As to “TTCTTAAAAAATCAAACACACATATATATATACATA [CACACA_site2296]”, the “gcPBM binding intensity (ln)” value worked out at 9.44.

Turning to “GTTTAGATAAAAGGGCGTACATCTATTTTTGACTAA [XGTACX_site7170]”, the “gcPBM binding intensity (ln)” value came to 9.06.

As for “AAAAAAAAAAAAAAAACACACAATTGAATTATTAAG [CACACA_site2864]”, the “gcPBM binding intensity (ln)” value was 9.33.

On to “TTTTATTATTAAACATGTACCCATATTATTGTTATG [XGTACX_site5563]”, for which the “gcPBM binding intensity (ln)” value turned out to be 9.39.

As to “AAAAAAAAATAAAAAAGTACAGGTAAATATATATAT [XGTACX_site5812]”, the “gcPBM binding intensity (ln)” value was determined as 9.66.

On to “AAAAAAAAAAAATATATATATATATATATAATATTT [GTGCAC_negctrl_site678]”, for which the “gcPBM binding intensity (ln)” value was found to be 8.82.

Turning to “GAATAAATAAAAATATGTACATAAATATATATATAT [XGTACX_site8858]”, the “gcPBM binding intensity (ln)” value is 9.5.

“AAGACAAATATGTATTGTACGAACGCTTTTTAATTA [XGTACX_site1961]”: the “gcPBM binding intensity (ln)” value is 9.06.

Take “ATACTTTAAAATAATACACACATGGAAAATAAAATT [CACACA_site697]”: the “gcPBM binding intensity (ln)” value stood at 9.65.

As for “TTTATAAAATATCTTTCACACATTACTATGTATTAT [CACACA_site5148]”, the “gcPBM binding intensity (ln)” value is 9.32.

As for “ATAAAAGTTTAATATTGTACGAACATGCGTTTCTAA [XGTACX_site1487]”, the “gcPBM binding intensity (ln)” value is 8.99.

On to “TAACATTACTCTTAACTCTTTTGGATACCAACTTAT [XGTACX_negctrl_site82]”, for which the “gcPBM binding intensity (ln)” value came to 9.41.

On to “AAATATTTATAAATTGCACACAAATAATAACATTAT [CACACA_site8737]”, for which the “gcPBM binding intensity (ln)” value was determined as 9.4.

Consider “ATAATAATATATACATGTACATATATATATATATAT [XGTACX_site3455]”, for which the “gcPBM binding intensity (ln)” value is 9.26.

With “AAATAAAAAGTAAAGCGTACAAATGATCAAATAATA [XGTACX_site7898]”, the “gcPBM binding intensity (ln)” value was determined as 9.79.

For the sequence “TAATCAACAAAATCTACACACTAAAATGAAATATAA [CACACA_site3749]”, the “gcPBM binding intensity (ln)” value is 9.55.

Take “AGAAGTGTAAAAGTTACACACACAAACTTGTCATTT [CACACA_site4613]”: the “gcPBM binding intensity (ln)” value worked out at 9.75.

For “CCCAGGTGCTCGTAACGTACTTACATCAAATATTAT [XGTACX_site4617]”, the “gcPBM binding intensity (ln)” value worked out at 9.31.

With “TATAAATAGATATATACACACTTGTGCAGAATATTA [CACACA_site7112]”, the “gcPBM binding intensity (ln)” value is 9.41.

Regarding “AGGCGTGAAATATACGTACACACATTATTTATATTT [CACACA_site2558]”, the “gcPBM binding intensity (ln)” value worked out at 9.54.

As to “ATATATATACAACAAGCATGCAGTAATTTTTTTTTT [TGCATGCA_site728]”, the “gcPBM binding intensity (ln)” value was 9.22.

For “CTATAATAACATAACACACACATGTATTTATAGGTG [CACACA_site6298]”, the “gcPBM binding intensity (ln)” value is 9.73.

Take “TCCTTATAAAAATACACACAAACTTTAATTAAAACA [CACACA_site3730]”: the “gcPBM binding intensity (ln)” value came out at 9.48.

The values above are taken from the supplement of paper PMC11417369.
